Assay results taken from PubChem BioAssay AID1963576 (National Center for Advancing Translational Sciences (NCATS), 2024).
Out of some 46,000 compounds screened, about 60 (0.1%) were called active. Inconclusive results (about 3%) are left out. Calls come from the whole dose curve; as a rule, active = well fitted inhibition curve with a large enough effect; inconclusive = small, poorly fitted or top-dose-only effect; inactive = no such curve, though single readings can be large or run the other way. The list shows a part of the results.

Assay: Primary qHTS assay for Inhibitors of ovarian cancer metastasis using an organotypic tumor microenvironment (TME) model.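 For activity change, negative = inhibition: plate controls were DMSO wells for no effect and tomatine positive control wells for full effect.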 Note: nearly all actives have a fitted effect of over 65% in size.
Details: SKOV3ip1-GFP adhesion/invasion on 3D omental model, fluorescence; series mostly up to 45.8 µM; activity change, negative = inhibition: at the top concentration
In short: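 Adhesion/invasion was scored as fixed GFP-labeled SKOV3ip1 cell counts (488/509 nm), normalized to DMSO and tomatine controls. Cancer cells in serum-free medium, with four compound doses (0.36-46 umol/L), sat 2 hr at RT then 16 hr at 37 C on a 48 hr fibroblast/mesothelial/ECM culture.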

outcome, inactive:
COCCc1nn2c(=O)cc(COC(=O)c3cccs3)nc2s1
CCOc1ccccc1NC(=O)CN(CCc1ccccc1)S(=O)(=O)c1ccc(C)cc1
COc1ccc(-c2c3c(nc4sc(C(=O)Nc5ccc(Cl)cc5)c(N)c24)CC(C)(C)CC3=O)cc1
CCc1ccccc1NC(=O)C(NS(=O)(=O)c1ccc2c(c1)CCC(=O)N2)c1ccccc1 (stereo not drawn)
COc1ccc(-c2nc(CCNC(=O)c3cccs3)cs2)cc1OC
O=C(O)Cn1nc(N2CCN(c3ccc(F)cc3)CC2)ccc1=O
CCCCc1ccc(C(=O)Nc2ccc3nc(N(CC)CC)cc(C)c3c2)cc1
COc1cc(OC)c(NC(=O)C2=C(C)C(=O)OC23CCCCC3)cc1Cl
OCc1cnc(SCc2cccc(F)c2)n1Cc1ccc(F)cc1
Cc1ccc2c(c1)N(C(=O)N1CCC(C(=O)NCCC3=CCCCC3)CC1)CC(C)O2 (stereo not drawn)
CCNC(=O)c1cnc2sc(N3CCC(C)CC3)nn2c1=O
Cc1cccc(N2C(=O)CS(=O)(=O)C23C(=O)N(C)c2ccccc23)c1 (stereo not drawn)
CN1c2ccc(Cl)cc2-c2nc(SCC(=O)Nc3cc(F)ccc3F)ncc2S1(=O)=O
O=C(c1ccco1)N1CCN(c2nc3ccc(Cl)cc3s2)CC1
Cc1ccc(C)c(N2CCN(C(=O)c3cccn3-c3nnc(N4CCCCC4)s3)CC2)c1
COc1ccc2cc(CNc3ccccc3)c(=O)n(CC(=O)Nc3ccc(C)cc3C)c2c1
Cc1ccc(NC(=O)Cn2c(=O)c(C(F)(F)F)nc3ccccc32)c(C)c1
CCCCN(CC)CCNC(=O)Cn1c(=O)c2cccn2c2cccnc21
Cc1ccccc1Cn1c(Oc2ccccc2F)nc2c1c(=O)n(C)c(=O)n2C

Activity change, negative = inhibition, inactive:
Cn1nnc2c(N3CCCCC3)ncnc21 -1.38%
Cc1ccc(CN(C(=O)COc2ccc(C(C)(C)C)cc2)C2CCS(=O)(=O)C2)o1 (stereo not drawn) -18.9%
COc1cc2cc(CNc3ccc(C)cc3)c(=O)n(CC(=O)Nc3ccc(C(C)C)cc3)c2cc1OC 6.84%
CN(C)c1ccc(CNC(=O)CCC(=O)N2Cc3ccccc3Oc3ncccc32)cc1 -0.988%
COc1ccccc1NC(=O)c1ccccc1NC(=O)c1ccccc1 -10.8%
COc1ccc(NC(=O)CSc2nc(-c3ccc(OC)cc3)[nH]c2-c2ccc(F)cc2)cc1 -9.89%
COCCCNC(=O)Nc1cc(C(=O)NCc2ccc(OC)cc2)ccc1N1CCCC1 -13.1%
COc1cccc(CCNC(=O)c2c(O)nc3cc(C)ccn3c2=O)c1 67.9%
CCCCN(C)C(=O)CN1C(=O)CCn2nc(-c3cn(C)c4ccccc34)cc21 -9.03%
CC1=C(C(N)=O)C(c2cccc(F)c2)n2nc(SCc3ccccc3)nc2N1 (stereo not drawn) -6.53%
COC(=O)c1ccccc1NC(=O)c1ccc2c(c1)CCN2S(=O)(=O)c1ccc(C)cc1 4.46%
O=c1cc(-c2ccccc2)n2c(SCc3ccc([N+](=O)[O-])cc3)nnc2[nH]1 -0.809%
O=C(CCCn1c(=O)c2sccc2n(Cc2ccc(F)cc2Cl)c1=O)NCc1ccc2c(c1)OCO2 -9.52%
COc1ccc2cc(CNc3ccc(C)cc3)c(=O)n(CC(=O)Nc3ccc(OC)c(Cl)c3)c2c1 42.9%
CCc1ccc(C(=O)c2cnc3ccc(C)cc3c2S(=O)(=O)c2ccc(OC)cc2)cc1 -8.85%
COc1ccccc1CNC(=O)c1cc(Sc2cccc(Cl)c2)nc2ccccc12 -12.5%
O=C(Nc1cccc(Cl)c1)c1ccc2nc(Cc3ccccc3)oc2c1 -0.265%
Cc1ccccc1Nc1ncnc2c1c(-c1ccccc1)cn2-c1ccc(F)cc1 2.72%
O=C(CCc1nc2cccnc2n1Cc1ccccc1)NCc1cccc(Cl)c1 -3.49%
Cc1c(C(=O)N2CCCC2)oc2c1-c1nn(CC(=O)NCc3cccc(F)c3)cc1CC2 -0.543%
COC(=O)NNC(=O)C1CCC(C)CC1 (stereo not drawn) 2.06%
CCOc1ccc(CCNc2ncnc3onc(-c4ccc(F)cc4)c23)cc1OCC 11.5%
CCN(CC)CCCNC(=O)CCc1c(C)n(CC)c2cc(-c3ccccc3OC)nn2c1=O 1.45%
Cc1ncc(COC(=O)C(C)C)c2cc(C(=O)Nc3ccccc3C(F)(F)F)c(=O)oc12 -7%
CCCCn1c(CNC(=O)C23CC4CC(CC(C4)C2)C3)nnc1SCC(=O)Nc1ccccc1 -6.98%
O=S(=O)(c1ccc(-c2cc(C(F)(F)F)on2)s1)N1CCN(c2cccc(Cl)c2)CC1 -5.48%
CCN1CCN(CCCNC(=O)c2cc3c(s2)-c2c(C)cccc2OC3)CC1 -5.23%
CCn1ccc2cc(S(=O)(=O)N3CCC(C(=O)NCCOC)CC3)ccc21 2.61%
CCOc1ccccc1CNC(=O)c1[nH]c2ccccc2c1Sc1ccccc1 3%
CCc1nc2ccc(C(=O)NCCc3ccc(OC)c(OC)c3)cc2nc1CC -4.07%
Cc1ccc2c(c1)c1c(n2CCc2ccc(C)nc2)CCN(C)C1 25.7%
Cc1ccccc1OCC(=O)Nc1ccccc1C(=O)OCc1cc(=O)n2c(C)csc2n1 15.6%
Cc1nn2c(C(F)(F)F)cc(-c3ccc(OC(C)C)cc3)nc2c1C#N -0.154%
COc1ccc(C(CC(=O)Nc2ccc(OC)c(OC)c2)N2Cc3ccccc3C2=O)cc1 (stereo not drawn) 9.14%
COc1ccc(OC)c(CCNC(=O)c2ccc3[nH]c(C)c(C)c3c2)c1 1.14%
COCCn1c(C)cc(O)c(C(c2ccccc2OC)N2CCCCC2)c1=O (stereo not drawn) 1.17%
COc1cccc(CNC(=O)c2cc3c(=O)n(C)c4ccccc4c3n2C)c1 -13.3%
COc1ccccc1CCNC(=O)CCc1c(C)c2cc3c(C)coc3cc2oc1=O 13%
Cc1ccc2c(CC(=O)Nc3c(C(=O)Nc4cccc(Cl)c4)oc4ccccc34)coc2c1C 3.96%
Cc1ccc2nc(SCc3nc(-c4ccccc4C)no3)[nH]c2c1 -4.95%
Cc1ccc(N2CCN(C(=O)C3CCC(CNS(=O)(=O)c4ccc(Br)s4)CC3)CC2C)cc1 (stereo not drawn) -3.95%
Cc1ccc(Cl)cc1Nc1sc(C(=O)c2ccccc2)c(N)c1S(=O)(=O)c1ccccc1 -8.98%
COc1ccc(NC(=O)CSC2=Nc3ccccc3C3=NC(Cc4ccccc4)C(=O)N23)cc1Cl (stereo not drawn) 5.35%
CN(Cc1ccccc1)C(=O)Cn1ncc2c3ccccc3n(Cc3cccc(Cl)c3)c2c1=O -7.62%
